Reference: PubChem BioAssay AID588453 (National Center for Advancing Translational Sciences (NCATS), 2011)
In all, about 390,000 compounds went through this assay and about 4,000 (1%) were called active. This list was built around the results that the source calls inconclusive (neither active nor inactive); the mix of calls is not that of the screen. The call rests on the fitted dose curve; in most records, active means well fitted inhibition curve with a large enough effect; inconclusive means small, poorly fitted or top-dose-only effect; inactive means no such curve, though single readings can be large or run the other way. Potencies of inconclusive entries are doubtful fits and often do not repeat.
Further: nearly all actives have a fitted effect of over 65% in size.
On the % scale 0 is the no-effect control and ±100 the full control effect; potency means the concentration at half of the fitted maximal effect; tags describe the fitted curve by direction and shape.

Each molecule was assayed against Thioredoxin reductase 1, cytoplasmic (Rattus norvegicus) (UniProt O89049) (assay: qHTS Assay for Inhibitors of Mammalian Selenoprotein Thioredoxin Reductase 1 (TrxR1): qHTS). Conditions: recombinant rTrxR1, NADPH fluorescence consumption, selenite substrate; series mostly up to 114 µM; activity change, negative = inhibition: at the top concentration.
Sequence of UniProt O89049 (O89049 whole entry, looked up): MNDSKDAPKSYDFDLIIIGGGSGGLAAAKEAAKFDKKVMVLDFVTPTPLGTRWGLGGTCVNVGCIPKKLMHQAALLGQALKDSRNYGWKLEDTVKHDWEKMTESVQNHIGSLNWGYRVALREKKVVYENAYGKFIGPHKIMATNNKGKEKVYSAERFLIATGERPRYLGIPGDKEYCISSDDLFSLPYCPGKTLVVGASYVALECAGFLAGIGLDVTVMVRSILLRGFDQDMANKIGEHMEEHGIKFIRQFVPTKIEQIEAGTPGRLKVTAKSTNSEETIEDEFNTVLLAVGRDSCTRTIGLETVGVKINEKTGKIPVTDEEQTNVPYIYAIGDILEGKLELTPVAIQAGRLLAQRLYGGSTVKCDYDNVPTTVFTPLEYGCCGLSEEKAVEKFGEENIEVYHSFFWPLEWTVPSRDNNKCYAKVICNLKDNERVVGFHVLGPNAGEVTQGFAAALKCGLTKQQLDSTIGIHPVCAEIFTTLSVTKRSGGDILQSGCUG
In short: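 Rat TrxR1 (90 nM in the dispensed reagent) was pre-reduced with 400 uM NADPH for 5 min at room temperature, then incubated with compound for 15 min. After 400 uM selenite was added, NADPH fluorescence (Ex 340/Em 450 nm) was followed for 8 min.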
In the case of CCC(=O)Oc1ccc2c(c1)OC1(OC(C)=O)OC(C)CC1=C2C (stereo not given), the Potency is reported as inconclusive: 50.1 µM [inhibitor, partial curve, poor fit]. For CC1CN(C(=O)c2cccc(C(=O)N3CC(C)OC(C)C3)c2)CC(C)O1 (stereo not given), the Potency was inconclusive: 31.6 µM [inhibitor, single point]. Cc1ccc(CNC(=O)CCc2c(C)nc3nc(C)nn3c2C)cc1 was tested, and the “activity change, negative = inhibition” value was inactive: 8.14%. In the case of O=C1C(=O)N(Cc2cccnc2)C(c2cccc(F)c2)/C1=C(/O)c1ccc2c(c1)OCO2 (stereo not given), the Potency is reported as inconclusive: 70.8 µM [inhibitor, partial curve, poor fit]. With O=C(O)c1cc(N/N=C/c2ccc(-c3ccc(F)cc3)o2)ccc1Cl the Potency was inconclusive: 31.6 µM [inhibitor, single point]. With CC[C@@H](C)[C@H]1O[C@]2(CC[C@@H]1C)C[C@@H]1C[C@@H](C/C=C(\C)[C@@H](O[C@H]3C[C@H](OC)[C@@H](O[C@H]4C[C@H](OC)[C@@H](O)[C@H](C)O4)[C@H](C)O3)[C@@H](C)/C=C/C=C3\CO[C@@H]4[C@H](O)C(C)=C[C@@H](C(=O)O1)[C@]34O)O2 the Potency was inconclusive: 28.2 µM [inhibitor, full curve]. In the case of O=c1cc(O)n(-c2ccc(Cl)cc2)c(=S)[nH]1, the Potency is reported as inconclusive: 31.6 µM [inhibitor, single point]. With COc1ccccc1OCc1nc(C#N)c(NCc2ccco2)o1 the Potency was inconclusive: 8.91 µM [inhibitor, full curve]. O=[N+]([O-])c1cc(S(=O)(=O)N2CCCCC2)ccc1NCc1cccc(Cl)c1 was tested, and the Potency was inconclusive: 89.1 µM [inhibitor, single point]. O=C(Nc1ccccc1)c1nnsc1S(=O)c1ccc(Cl)cc1 (stereo not given) was tested, and the Potency was active: 1.26 µM. CCN(CC)/C(Sc1ccccc1)=C(\C(Cl)=C(Cl)Cl)[N+](=O)[O-] was tested, and the Potency was inconclusive: 22.4 µM [inhibitor, partial curve, poor fit]. COc1cc2c(cc1OC)C(C)N(CC(=O)Nc1ccc(S(=O)(=O)N3CCCC3)cc1)CC2 (stereo not given) was tested, and the Potency was inconclusive: 44.7 µM [inhibitor, partial curve]. For CCN(CC)Cc1cc(Nc2c3ccccc3nc3c4ccccc4n(C)c23)cc(CN(CC)CC)c1O, the Potency was inconclusive: 12.6 µM [inhibitor, partial curve, poor fit]. C/C(=N\NC(=O)c1c(Cl)c(C)nn1C)c1cccc(NC(=O)c2cccc(F)c2)c1 was tested, and the “activity change, negative = inhibition” value was inactive: -1.09%. COc1ccc(/C=N/NC(=O)c2ccccc2O)cc1COc1ccccn1 was tested, and the Potency was inconclusive: 89.1 µM [inhibitor, single point]. COc1ccc(C2Nc3cccc4cccc(c34)N2)cc1Br was tested, and the Potency was inconclusive: 89.1 µM [inhibitor, single point]. With CC(C)(C)OC(=O)[C@H]1[C@H](c2ccc([N+](=O)[O-])cc2)C2(C(=O)c3ccccc3C2=O)C2c3ccccc3C=NN21 (stereo not given in full) the Potency was inconclusive: 79.4 µM [inhibitor, single point]. For Cc1[nH]c2ccccc2c1C1=CC(=O)C=CC1=O, the Potency was active: 25.1 µM. CC(C)C(=O)NC(=S)Nc1sc2c(c1C(N)=O)CCCC2 was tested, and the Potency was inconclusive: 12.6 µM [inhibitor, partial curve, poor fit]. In the case of Cc1ncc(C[n+]2csc(CCOC(=O)CC34CC5CC(CC(C5)C3)C4)c2C)c(N)n1, the Potency is reported as inconclusive: 56.2 µM [inhibitor, single point]. In the case of Cc1ccc(C)n1-c1ccc(N2CCOCC2)c([N+](=O)[O-])c1, the Potency is reported as inconclusive: 89.1 µM [inhibitor, single point]. For O=C(Cn1ncc(Cl)c(Cl)c1=O)N1CCN(S(=O)(=O)c2ccc3ccccc3c2)CC1, the Potency was inconclusive: 31.6 µM [inhibitor, partial curve]. In the case of COc1ccc(-c2oc3ccccc3c2C(=O)Oc2ccccc2)cc1, the Potency is reported as active: 15.8 µM. With O=C(Cn1cc(C(F)(F)F)ccc1=O)NC(c1ccccc1)c1ccccc1 the Potency was inconclusive: 79.4 µM [inhibitor, single point]. With O=C(Cc1noc2ccccc12)NNC(=S)Nc1ccccc1 the Potency was inconclusive: 14.1 µM [inhibitor, partial curve]. In the case of COc1cccc(NCCC(=O)c2cccc([N+](=O)[O-])c2)c1, the Potency is reported as active: 20 µM. Cc1nn(-c2ccccc2)c2nc(-c3ccncc3)cc(C(=O)NCc3ccco3)c12 was tested, and the Potency was active: 50.1 µM. For O=C(c1ccc(OCC2CCCO2)cc1)N1CCc2ccccc2C1 (stereo not given), the “activity change, negative = inhibition” value was inactive: 22.7% [at 57.1 µM]. CC(C)(C)c1ccc(OCC(=O)NNC(=S)NC(=O)c2ccccc2[N+](=O)[O-])c(Br)c1 was tested, and the Potency was inconclusive: 35.5 µM [inhibitor, single point]. In the case of CCN(CC)C(=O)N1CCN(C(=O)N(CC)CC)CC1, the “activity change, negative = inhibition” value is reported as inactive: 5.49% [at 57.1 µM]. With CCOc1ccc(-c2cc3c(=O)n(CC(=O)Nc4cc(F)ccc4C)ccn3n2)cc1 the “activity change, negative = inhibition” value was inactive: 18.5% [at 57.1 µM]. With CCOc1ccc2c(c1)nc(SCC(=O)c1cccs1)n2C the Potency was inconclusive: 56.2 µM [inhibitor, single point]. With CCOC(=O)/C=C/C(=O)OCC(=O)N1CCN(C(=O)c2ccco2)CC1 the Potency was active: 50.1 µM. With COc1ccc(C(=O)NNc2ncnc3c2cnn3-c2ccc(C)c(Cl)c2)cc1 the “activity change, negative = inhibition” value was inactive: -16.3% [at 57.1 µM]. Cc1ccc(-c2nn(-c3cccc(F)c3)cc2CN2CCN(c3ccccn3)CC2)o1 was tested, and the Potency was inconclusive: 63.1 µM [inhibitor, single point]. For O=C(NCCS(=O)(=O)NCc1ccco1)c1ccccc1, the Potency was inconclusive: 79.4 µM [inhibitor, single point]. CC(=O)Oc1cccc(N2C(=O)c3cccc4c([N+](=O)[O-])ccc(c34)C2=O)c1 was tested, and the “activity change, negative = inhibition” value was inactive: 0.0273%. CC(C)(C)N=Cc1c(O)ccc2oc3c(c12)CCCC3 was tested, and the Potency was inconclusive: 89.1 µM [inhibitor, single point]. COc1ccc(OCc2ccc(/C=N\NC(=O)c3sccc3C)o2)cc1 was tested, and the Potency was inconclusive: 89.1 µM [inhibitor, single point]. With COc1cc(/C=C2\C(=O)N(c3ccc(NC(C)=O)cc3)N=C2c2ccccc2)ccc1O the Potency was inconclusive: 35.5 µM [inhibitor, partial curve].
